This is an account of results in ChEMBL document CHEMBL1201862, “PubChem BioAssay data set” (2004).

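Cultured in 96-well plates, cells were exposed to test compound for 48 hours across five concentrations. GI50 is the concentration that inhibits growth by half.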 The source made the active and inactive calls. No stated cut-off is given here; in the data, active = GI50 up to about 1.1 µM and inactive = higher. A value given as a limit tells only on which side of the number the result lay.

In this test the test system is NCI-H322M. Nature of the test: NCI anticancer screen, dose series, 48 h.
For `COC1C(C)OC(OC2CC(C)(O)Cc3cc4c(c(O)c32)C(=O)c2c(O)cc3c(c2C4=O)OC2OC3(C)C(O)C(N(C)C)C2O)C(OC)C1(C)OC` (configuration not stated), the GI50 was active: 0.0198 µM.

Take `O=C(NCCN1CCCCC1)c1ccc(I)cc1`: the GI50 was inactive: > 100 µM. As to `CC(CC(=O)O)(CC(=O)O)C(=O)O`, the GI50 was inactive: > 100 µM. As for `COCCOC(=O)c1c(C)[n+]([O-])c2cc(Cl)c(Cl)cc2[n+]1[O-]`, the figure is inactive: 30.4 µM; as for `CCOC(=O)CCC(NC(=O)Cc1ccc(Oc2nc3ccccc3nc2-c2ccccc2)cc1)C(=O)OCC` (configuration not stated), inactive: > 100 µM; as for `CCOC(=O)n1c2ccccc2c2c(O)c(OC)c3c(c21)C(=O)NC3=O`, inactive: 96.8 µM. Then `C/C(CCOC1CCCCO1)=C(\C)[Si](C)(C)C` (configuration not stated), with inactive: > 100 µM. As for `COc1ccccc1/N=N/C(=N/NC(=O)c1ccc(C)cc1)c1ccc(N(CCC#N)CCC#N)cc1OC`, the figure is inactive: 46.9 µM; as for `O=S(=O)(/C=C/C(=C/c1ccccc1)S(=O)(=O)c1ccccc1)c1ccccc1`, inactive: 1.84 µM. On to `NS(=O)(=O)c1nn2c(Br)c(-c3ccccc3)nc2s1`, for which the GI50 is inactive: 4.83 µM.

With `CC(C)C(C)C(C)(C)P(C)(C)=O` (configuration not stated), the GI50 was inactive: > 100 µM. Regarding `O=C1O[C@H](c2ccccc2)[C@@H]2CC3(CCN12)OCCO3`, the GI50 is inactive: > 100 µM. Then `COc1ccc(C2CC(c3sc(Nc4ccc(C)cc4)nc3C)=NN2)cc1` (configuration not stated), with inactive: 21.3 µM; and `CCOc1ccccc1/C=C1\NC(=O)N(/C=C2\C(=O)Oc3ccccc3C2=O)C1=O`, with inactive: 55.6 µM. Then `COc1cccc(-c2nc(-c3cnccn3)n(Cc3ccccc3)n2)c1`, with inactive: > 100 µM.

Take `C/C(CC(=O)Nc1ccc(Cl)cc1)=N\NC(=O)C[n+]1ccccc1`: the GI50 was inactive: > 100 µM. As for `O=C(O)C1=C(O)C(C(=O)O)C23CCCCCCCCCCC12C(C(=O)O)C(O)=C3C(=O)O` (configuration not stated), the figure is inactive: > 100 µM. Then `Cc1nc(-c2cccnc2)sc1C(=O)/C=C/c1cccc([N+](=O)[O-])c1`, with inactive: > 100 µM; and `CSC(SC)=C(C(=O)c1ccc(Cl)cc1)n1c(=O)sc2cc(Br)ccc21`, with inactive: > 100 µM; and `CSC(=S)N/N=C(\C)c1cccc(C)n1`, with inactive: 2.05 µM.

For the compound `CCN1C(=O)C(C)S/C1=N\NC(=O)CSc1nc2ccccc2c(=O)n1CC` (configuration not stated), the GI50 was inactive: > 100 µM. As for `COC(=O)c1c(C)cccc1C1CN=NC12Cc1cc(C)cc(C)c1C2=O` (configuration not stated), the figure is inactive: 23.2 µM; as for `O=Cc1cc(C(=O)OCc2ccccc2)n(S(=O)(=O)c2ccccc2)c1`, inactive: 27.3 µM; as for `Cc1cc(=O)n2nc(SCc3ccccc3)sc2n1`, inactive: > 100 µM. Then `Nc1ccn(C2C=C(CO)C(O)C2O)c(=O)c1` (configuration not stated), with inactive: > 625 µM; and `COc1ccc(OC)c([N+](=O)[O-])c1-c1nc2sc(Cl)cn2c1/C=N/N=C(N)N`, with inactive: 19.8 µM. Then `COC(=O)CNC(=O)CNC(=O)CSc1nnc(COc2ccc(Cl)cc2)n1-c1ccccc1`, with inactive: 56.9 µM; and `CC1=C(C)C(=O)C(C2=CC(=O)c3ccccc3C2=O)=C(C2=CC(=O)c3ccccc3C2=O)C1=O`, with inactive: 19.1 µM. Consider `CC1(C)OC(C(C)(C)O)C(C(C)(C)O)O1` (configuration not stated), for which the GI50 was inactive: > 100 µM. Then `COC(=O)C12OCC34C(CC5C(C)=CC(=O)C(O)C5(C)C3C(O)C1O)OC(=O)C(OC(=O)CC(C)C)C24` (configuration not stated), with active: 0.00429 µM. As for `O=c1cc(-c2ccccc2)c2ccc(O)c(CN(CCCl)CCCl)c2o1`, the figure is inactive: 22.8 µM; as for `CC1=CN(c2ccccc2)S2=C1c1sc3c(c1N2c1ccc(Br)cc1)CCCC3` (configuration not stated), inactive: > 100 µM. As for `CC(=O)OCC1OC(n2c(-c3ccc(C)cc3)cc(-c3ccccc3)c(C#N)c2=O)C(OC(C)=O)C(OC(C)=O)C1OC(C)=O` (configuration not stated), the figure is inactive: > 100 µM; as for `C[C@H]1CC[C@@H]2[C@@H](C)[C@H]3[C@H](C[C@H]4[C@@H]5CC=C6C[C@@H](O)CC[C@]6(C)[C@H]5CC[C@]34C)N2C1`, inactive: 79.8 µM; as for `CSc1nc(NC(=O)O)c(N(C(C)=O)C(=O)O)c(=O)n1C`, inactive: > 100 µM. In the case of `COc1cc(Nc2ccc3c(c2)CCC3)nc(OC)n1`, the GI50 was inactive: 95.9 µM. Then `CC1=C(C(=O)Nc2ccccc2)C(c2ccc(C)o2)C(C#N)=C(SCc2ccccc2)N1` (configuration not stated), with inactive: > 100 µM; and `Cc1cccc(/C=N/NC(=S)NCc2ccccn2)n1`, with inactive: 33.7 µM; and `C1CCNCC1.O=C1NC(=S)N/C1=C/c1ccccc1O`, with inactive: > 100 µM.

As for `CC(C)(C)OC(=O)N1CCC(NC(=O)NC2CCN(C(=O)OC(C)(C)C)CC2)CC1`, the GI50 is inactive: > 100 µM. `CC(=O)N1C(C(=O)NC2CCCCC2)CSC1c1ccccc1` (configuration not stated): the GI50 is inactive: > 100 µM.

As to `C[N+]1(CCCCN2c3ccccc3Sc3cc(N=[N+]=[N-])ccc32)CCN(C(=O)CCNC(=O)Cc2ccc(C(=O)c3ccccc3)cc2)CC1`, the GI50 is inactive: 16.4 µM.

Take `COC(=O)c1c(O)ccc2c1c1c(n2Cc2ccc(Cl)cc2Cl)C(=O)c2ccccc2C1`: the GI50 is inactive: > 100 µM. As for `COc1ccc(Oc2ccccc2N)cc1`, the figure is inactive: 59.6 µM; as for `Sc1nc(S)nc(Oc2ccc(Cl)c(Cl)c2)n1`, inactive: 25.6 µM; as for `CC(=O)CCC1(c2ccccc2)OC(=O)C(C#N)=C1c1ccccc1` (configuration not stated), inactive: > 100 µM.

For `N#Cc1cc2cc3c4c(c2oc1=O)CCCN4CCC3`, the GI50 was inactive: > 100 µM. Regarding `CCCCC1C=Cn2c(=O)oc3c(OC(C)C)c(OC(C)C)c(O)c1c32` (configuration not stated), the GI50 was inactive: 23.1 µM. Then `Nc1ccc(SC23CC4CC(CC(C4)C2)C3)cc1`, with inactive: > 100 µM; and `Nc1ncnc2c1ncn2Cc1cccc(CCl)c1`, with inactive: 21.8 µM. As for `Cc1cc2ncn(-c3nc4ccccc4nc3C(C#N)S(C)(=O)=O)c2cc1C` (configuration not stated), the figure is inactive: > 100 µM; as for `CCN(C(=O)N[C@@H](Cc1ccccc1)C(=O)N[C@@H](CC(C)C)C(=O)OC)c1ccccc1`, inactive: 40.9 µM. Then `CC(=O)ON1C(=O)c2cccc3cccc(c23)C1=O`, with inactive: 27.5 µM. With `CN(C)C(=S)/N=c1\ssc(=S)n1-c1ccccc1`, the GI50 was inactive: 42.1 µM.

Take `O=C1CSC(/C=C/c2ccccc2)N1c1ccc(-c2ccc(-n3c(-c4ccccc4)nc4ccccc4c3=O)cc2)cc1` (configuration not stated): the GI50 was inactive: 50.5 µM. Then `O=C1CCC2C(O)c3cc4c(cc3C(c3ccc5c(c3)OCO5)N12)OCO4` (configuration not stated), with inactive: > 100 µM.

`O=C(c1ccco1)N(C(=S)OC12CC3CC(CC(C3)C1)C2)c1ccccc1`: the GI50 is inactive: 29.6 µM.

As to `COc1ccc(/C=C/C(=N\NC(=O)c2ccccc2)c2sc(Nc3ccc([N+](=O)[O-])cc3)nc2C)cc1OC`, the GI50 is inactive: 14.3 µM. Then `C=C1CC2C[C@H](OS(=O)(=O)c3ccc(C)cc3)C(C1)N2C` (some centres not stated), with inactive: > 100 µM. Then `COc1ccc2cc3c4cc5c(cc4cc[n+]3cc2c1OC)OCO5`, with inactive: 39.9 µM. `CCCCCC(C)(C)CCC(=O)OC1OC(COC2OC(COC3OC(CO)C(O)C(O)C3O)C(O)C(O)C2O)C(O)C(O)C1O` (configuration not stated): the GI50 was inactive: > 100 µM. As for `COc1cc2c(cc1OC)C(C#N)(Cc1ccccc1)N(C(=O)c1ccccc1)C=C2` (configuration not stated), the figure is inactive: > 100 µM. For the compound `CC(C)C(=O)/C=C/c1ccc(Cl)cc1`, the GI50 is inactive: 29.9 µM. As for `CCOC(=O)c1[nH]c(-c2[nH]c(-c3[nH]c(-c4[nH]c(C(=O)OCC)c(C)c4C(=O)OCC)c(C(=O)OCC)c3C)c(C)c2C(=O)OCC)c(C(=O)OCC)c1C`, the figure is inactive: > 100 µM. As for `c1csc(-c2csc(-c3ccsc3)c2)c1`, the figure is inactive: > 100 µM; as for `O=c1[nH]nc(Cc2ccccc2)n1C1CCCC1`, inactive: > 100 µM.

For the compound `C=CCN(CCN(CC=C)S(=O)(=O)c1ccc(C)cc1)S(=O)(=O)c1ccc(C)cc1`, the GI50 is inactive: > 100 µM. As for `O=[N+]([O-])c1ccc(N2C[N+](c3ccccc3)=NC(c3ccccc3)=N2)cc1`, the figure is inactive: 38.4 µM. Turning to `COc1ccc(NC(=O)CC(=O)NN2C(=O)/C(=C/c3ccc(N(CCC#N)CCC#N)cc3C)N=C2/C=C\c2ccccc2)cc1`, the GI50 is inactive: > 100 µM. As for `COC(=O)[C@H]1ON2O[C@H](OC3CCCC[C@@H]3c3ccccc3)C[C@@H]3CC[C@H]1[C@@]32C` (some centres not stated), the figure is inactive: > 100 µM; as for `CSc1cc(C(C)(C)C)ccc1C(O)c1ccc(C(C)(C)C)cc1SC`, inactive: 14.3 µM. As for `O=C(/C=C/C1C(=O)NC(=O)NC1=O)CC(=O)C(=O)Nc1cc(Cl)c(Cl)cc1Cl`, the figure is inactive: > 100 µM; as for `Oc1cc(O)c2ccc(-c3ccc(O)c(O)c3)[o+]c2c1`, inactive: > 100 µM. As for `CP(=O)(CCSc1ccccc1)c1ccccc1` (configuration not stated), the figure is inactive: > 100 µM.

As for `CC1(C)O[C@H]2OC(CO)C(N=[N+]=[N-])[C@H]2O1` (some centres not stated), the GI50 is inactive: > 100 µM. As for `C#C/C=C\CCCC/C=C\C#CC#CCCCC#CC#C[C@H](COS(=O)(=O)O)OS(=O)(=O)O`, the figure is inactive: > 100 µM; as for `NC(=O)c1ccc(/N=N/O)nc1`, inactive: > 100 µM. As for `NC(=S)N/N=C/C1NCCC2CCCCC21` (configuration not stated), the figure is active: 0.234 µM; as for `COC(=O)C1=C2CCC(=O)[C@@]2(C)C(OC(C)=O)C=CC1` (some centres not stated), inactive: > 100 µM.

`Cc1ccc(S(=O)(=O)N2CCCC2C(=O)O[C@H]2CC[C@H]3CC=C[C@H]32)cc1` (some centres not stated): the GI50 is inactive: > 100 µM. Regarding `NCCCCCC(CCN)SCC1OC(n2cnc3c(N)ncnc32)C(O)C1O` (configuration not stated), the GI50 is inactive: > 1040 µM. As for `Oc1cc(-c2ccc3ccccc3c2)nc2ncc(Cl)cc12`, the figure is inactive: 4.91 µM.
